From paper PMC4336329 (PLoS ONE, 2015)
Out of some 310,000 compounds screened, about 2,200 (0.71%) showed an effect of 50% or more. Effects have a minus sign here. Some of the results follow.

Biological target: human ether-à-go-go-related gene (hERG) potassium channel (human, UniProt Q12809)
Test: primary screen, population patch clamp on CHO cells stably expressing hERG

human ether-à-go-go-related gene (hERG) potassium channel, sequence (Q12809 whole entry, looked up): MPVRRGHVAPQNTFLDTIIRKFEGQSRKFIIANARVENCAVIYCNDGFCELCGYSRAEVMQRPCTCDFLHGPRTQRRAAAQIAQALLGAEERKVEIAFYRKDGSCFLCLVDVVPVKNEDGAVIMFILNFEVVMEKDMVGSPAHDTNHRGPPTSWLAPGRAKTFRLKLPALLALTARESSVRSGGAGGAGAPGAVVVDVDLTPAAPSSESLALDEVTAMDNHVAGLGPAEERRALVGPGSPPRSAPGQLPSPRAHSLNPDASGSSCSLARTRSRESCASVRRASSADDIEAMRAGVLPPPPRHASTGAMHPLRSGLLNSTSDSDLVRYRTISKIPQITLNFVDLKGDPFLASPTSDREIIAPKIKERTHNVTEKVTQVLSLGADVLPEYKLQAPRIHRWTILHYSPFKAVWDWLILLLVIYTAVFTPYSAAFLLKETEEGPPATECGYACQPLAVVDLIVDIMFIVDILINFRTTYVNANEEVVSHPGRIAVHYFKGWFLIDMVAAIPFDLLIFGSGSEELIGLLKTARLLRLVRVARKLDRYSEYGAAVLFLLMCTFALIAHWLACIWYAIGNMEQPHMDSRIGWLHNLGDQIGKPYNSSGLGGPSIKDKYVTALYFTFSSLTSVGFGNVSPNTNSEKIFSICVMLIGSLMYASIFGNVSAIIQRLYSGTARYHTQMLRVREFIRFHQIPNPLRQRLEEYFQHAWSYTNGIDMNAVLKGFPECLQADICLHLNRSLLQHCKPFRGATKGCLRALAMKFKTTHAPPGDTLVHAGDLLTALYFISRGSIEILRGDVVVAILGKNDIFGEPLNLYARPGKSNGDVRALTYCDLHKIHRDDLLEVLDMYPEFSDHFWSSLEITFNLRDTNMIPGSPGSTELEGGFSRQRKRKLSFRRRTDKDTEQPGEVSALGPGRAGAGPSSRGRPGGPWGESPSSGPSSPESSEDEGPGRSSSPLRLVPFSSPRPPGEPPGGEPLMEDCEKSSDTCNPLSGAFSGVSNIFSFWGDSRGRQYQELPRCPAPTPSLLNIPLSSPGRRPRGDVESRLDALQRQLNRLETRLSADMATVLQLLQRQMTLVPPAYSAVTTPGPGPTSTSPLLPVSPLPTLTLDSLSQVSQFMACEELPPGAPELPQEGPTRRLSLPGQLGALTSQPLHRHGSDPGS

SMILES | hERG current change (%, negative = inhibition) at 1uM [%]
COc1ccc(/C=N\NC(=O)c2ccc(F)cc2)cc1COc1cc(F)ccc1[N+](=O)[O-] | 12.9
O=C(CCc1nc(-c2ccccc2Cl)no1)NC1CCCC1 | 1.7
CNC(=S)N/N=C/c1cc(C)n(-c2ccc(Cl)c(Cl)c2)c1C | 1.77
Cc1ccc2c(c1)C1CN(C)CCC1N2C(=S)Nc1ccc(Cl)cc1Cl (centres unmarked) | -1.38
CC(C)CN1CCN(CC#Cc2ccccc2)CC1CCO (centres unmarked) | 9.33
COc1ccc(OCc2nc3ccccc3[nH]2)cc1 | 12.6
CCCCn1c(N)c(N(CC(C)C)C(=O)c2cccc(-n3cnnn3)c2)c(=O)[nH]c1=O | 9.97
CCOC(=O)N1CCN(C(=O)C(=O)Nc2sc3c(c2C#N)CC(C)(C)OC3)CC1 | 22.3
c1ccc(-c2csc3ncnc(NCCN4CCOCC4)c23)cc1 | 1.35
CCOc1cc(/C=C2\C(=O)NC(=O)N(C)C2=O)cc([N+](=O)[O-])c1O | 13.4
CN1C(=O)c2ccc(C(=O)NCc3ccccc3)cc2C1=O | 9.41
Fc1cccc(/C=N/Nc2ncnc3nc[nH]c23)c1 | 14.4
COc1ccc(Cl)cc1S(=O)(=O)N1CCCC(C(=O)NCc2ccncc2)C1 (centres unmarked) | 2.57
Cc1ccc(S(=O)(=O)Nc2nnc(C(C)(C)C)s2)cc1 | 18.6
O=C(N/N=C/c1ccsc1)C1CC1 | 17
CCOC(=O)c1c(C)n(C)c2cc(Br)c(C(=O)OC)cc12 | -3.02
COc1ccc(C2(CNC(=O)c3cccc([N+](=O)[O-])c3)CCOCC2)cc1OC | 5.05
CCOc1ccc(C(=O)N2CCN(C(=O)c3ccco3)CC2)cc1OCC | 10.8
Nc1nc(SCC(=O)N2CCc3ccccc32)[nH]c(=O)c1-c1ccccc1 | -2.93
CC(=O)/C=C(\C)Nc1ccc(-c2cnc(-c3ccccc3)o2)cc1 | 1.45
COC(=O)C1=C(Nc2ccccc2NC(=O)c2ccccc2C(=O)O)CSC1 | 11.5
O=C(Nc1ccccc1N1CCCCC1)C1=COCCO1 | 13.1

SMILES | hERG current change (%, negative = inhibition) at 1uM [%]
COc1ccc2cc(C(c3nnnn3C3CCCCC3)N3CCCCCC3)c3nnnn3c2c1 (centres unmarked) | 7.04
O=C(CSc1ncn[nH]1)OCN1C(=O)c2ccccc2C1=O | 8.43
COc1ccccc1NC(=O)c1ccc(CN(c2cc(Cl)ccc2C)S(=O)(=O)c2ccccc2)cc1 | -2.89
CCOc1ccc(NC(=O)CN2CCN(CC(=O)Nc3cccc(F)c3)CC2)cc1 | -97.2
Cc1ccc2c(c1)N(C(=O)CCC(=O)NCc1cccc(Cl)c1)CC(C)O2 (centres unmarked) | 0.299
Cc1nc(C(=O)NCCO)cc2c1[nH]c1ccccc12 | 12.1
CCOC(=O)C1CCN(Cc2nnnn2CCc2ccccc2)CC1 | 4.65
CCNC(=S)NNC(=O)c1cc(-c2cccc(C)c2)nc2ccccc12 | 3.36
COc1cccc(-c2cccc(NC(=O)C3CCN(CC4CCOC4)CC3)c2)c1 (centres unmarked) | -0.517
CCN(CC)P(=O)(Nc1ccc(Br)cc1)c1c(C)nn(CCC#N)c1NC(=O)c1ccc(Cl)cc1 (centres unmarked) | 13.1
NC(=O)C1=C[C@H](c2ccc(C(F)(F)F)cc2)C[C@H](OCc2ccc(CO)cc2)O1 | 13.5
CN(C)C(CNC(=O)c1ccc(S(=O)(=O)N(C)C)cc1)Cc1ccccc1 (centres unmarked) | 9.81
Cc1ccc2c(c1)Sc1ccccc1CC2=O | -4.5
Cc1ccc(COc2ccc(C)nc2[N+](=O)[O-])cc1 | 8.76
Cc1nc2ccccc2nc(C)c1=NO | 5.73
CN(CCNC(=O)C1CCCN(c2ncnc3c2nc2n3CCCCC2)C1)Cc1ccccc1 (centres unmarked) | 6.83
O=C(NCCO)c1cc(-c2cc(C(=O)NCCO)c3ccccc3n2)nc2ccccc12 | 5.68
Fc1ccc(CSc2nnc(-c3ccccn3)o2)cc1 | 6.84
CCOc1nc(-c2ccc(OC)cc2)ccc1-c1noc(C)n1 | -0.2
Cc1cccc(NC(=S)NNC(=O)c2ccccc2Br)c1 | 9.19
COC(=O)C1=C(C)NC(C)=C(C(=O)OC)C1c1ccc(-c2cccc(Cl)c2Cl)o1 | 13.6
COc1cc(C(=O)Nc2cccc(NC(=O)c3ccccc3)c2)cc(OC)c1OC | 1.58
